Results taken from ChEMBL document CHEMBL5724801, “EUbOPEN Chemogenomics Library - Multiplex” (2024).
Some entries of the source have several records that differ or are many. They are shown here; other results are not. The source may hold further records. Values that stand side by side repeat one measurement in other runs, samples, wells, individuals or studies.

What was measured:
Assay type in all cases: toxicity, cell-based
HEK-293T = test: Multiplex assay against HEK293T; details: human
Procedure, shortened: (§1)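 Phenotypes for tubulin, mitochondrial mass and membrane permeability are expressed as per cents of healthy-nucleus cells. Cells were stained live at seeding with Hoechst33342, BioTracker Green Microtubule Cytoskeleton Dye, MitoTracker Red and Annexin V Alexa Fluor 680, then imaged after compound addition on a CQ1 microscope at 37°C and 5% CO2. Machine-learning gating in CellPathfinder separated Hoechst high-intensity objects from normal cells, divided normal cells by nuclear state (healthy, pyknosed, fragmented) and divided pyknosed cells into mitotic or apoptotic.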

U2OS = test: Multiplex assay against U2OS; details: human; procedure, shortened: as §1
Fibroblast = test: Multiplex assay against human fibroblast; procedure, shortened: as §1
[1] = 12 h, 1 µM, compound concentration 1 uM
[2] = 24 h, 1 µM, compound concentration 1 uM
[3] = 24 h, 10 µM, compound concentration 10 uM
[4] = 48 h, 1 µM, compound concentration 1 uM
[5] = 48 h, 10 µM, compound concentration 10 uM
[6] = 12 h, 10 µM, compound concentration 10 uM

For `C=CC(=O)Nc1cc(Nc2nccc(-n3cc(CN(C)C)c(-c4ccccc4)n3)n2)c(OC)cc1N1CCOCC1` [LAZERTINIB], the “Population Healthy Nuclei (%)” value (HEK-293T; [1]) was 43.77% and 14.05%, the “Population Healthy Nuclei (%)” value (HEK-293T; [2]) was 66.59% and 17.21% and the “Total Cell Count” value (HEK-293T; [2]) was 442 and 122. For the same molecule, the “Population Mitochondria Different-Phenotype (%)” value (HEK-293T; [3]) was 82.35% and 0%, the “Population Pyknosed Nuclei (%)” value (HEK-293T; [4]) was 14.43% and 53.24% and the “Population Tubulin-Different-Phenotype (%)” value (HEK-293T; [4]) was 3.28% and 68.97%. For the same molecule, the “Total Cell Count” value (HEK-293T; [4]) was 888 and 141, the “Population Tubulin-Different-Phenotype (%)” value (HEK-293T; [5]) was 25.85% and 80% and the “Population Mitochondria Different-Phenotype (%)” value (U2OS; [1]) was 1.06% and 41.75%. For the same molecule, the “Population Mitochondria Different-Phenotype (%)” value (U2OS; [6]) was 19.03% and 73.02%, the “Total Cell Count” value (U2OS; [6]) was 391 and 104 and the “Population Mitochondria Different-Phenotype (%)” value (U2OS; [2]) was 6.13% and 51.89%. The “Population Mitochondria Different-Phenotype (%)” value (U2OS; [3]) was 16.79% and 73.21%, the “Total Cell Count” value (U2OS; [3]) was 406 and 103 and the “Population Membrane Permeable-Phenotype (%)” value (U2OS; [4]) was 7.51% and 26.97%. For the same molecule, the “Population Mitochondria Different-Phenotype (%)” value (U2OS; [4]) was 2.58% and 38.2%, the “Total Cell Count” value (U2OS; [4]) was 534 and 160 and the “Population Mitochondria Different-Phenotype (%)” value (U2OS; [5]) was 12.85% and 55.88%. For the same molecule, the “Total Cell Count” value (U2OS; [5]) was 486 and 113, the “Population Apoptotic (%)” value (Fibroblast; [1]) was 2.7% and 15.91% and the “Population Apoptotic (%)” value (Fibroblast; [2]) was 10% and 47.37%. The “Population Fragmented Nuclei (%)” value (Fibroblast; [3]) was 19.21% and 6.4%, the “Population Pyknosed Nuclei (%)” value (Fibroblast; [3]) was 43.05% and 12.07% and the “Population Mitochondria Different-Phenotype (%)” value (Fibroblast; [5]) was 53.42% and 14.41%. For the same molecule, the “Population Pyknosed Nuclei (%)” value (Fibroblast; [5]) was 23.94% and 7.23% and the “Total Cell Count” value (Fibroblast; [5]) was 142 and 429.
In the case of `CC(=O)NCC(=O)N1[C@@H]2CC[C@H]1c1ccc(Nc3ncc(C(F)(F)F)c(NC4CCC4)n3)cc12` [PF-03814735], the “Population Healthy Nuclei (%)” value (HEK-293T; [1]) was 55.4% and 13.33%, the “Population Tubulin-Different-Phenotype (%)” value (HEK-293T; [1]) was 8.44% and 45% and the “Population Healthy Nuclei (%)” value (HEK-293T; [6]) was 39.87% and 9.73%. For the same molecule, the “Population Tubulin-Different-Phenotype (%)” value (HEK-293T; [2]) was 22.27% and 6%, the “Population Healthy Nuclei (%)” value (HEK-293T; [3]) was 46.8% and 7.2% and the “Population Tubulin-Different-Phenotype (%)” value (HEK-293T; [3]) was 83.16% and 22.22%. The “Population Mitochondria Different-Phenotype (%)” value (HEK-293T; [4]) was 39.06% and 9.43%, the “Population Pyknosed Nuclei (%)” value (HEK-293T; [4]) was 7.47% and 26.85% and the “Population Tubulin-Different-Phenotype (%)” value (HEK-293T; [4]) was 3.65% and 50%. The “Population Tubulin-Different-Phenotype (%)” value (HEK-293T; [5]) was 7.53% and 46.67%, the “Population Mitochondria Different-Phenotype (%)” value (U2OS; [6]) was 0.47% and 32.2% and the “Population Mitochondria Different-Phenotype (%)” value (U2OS; [3]) was 3.12% and 28.12%. The “Population Tubulin-Different-Phenotype (%)” value (U2OS; [3]) was 20.83% and 6.25%, the “Population Mitotic Cells (%)” value (U2OS; [5]) was 21.03% and 6.59% and the “Population Tubulin-Different-Phenotype (%)” value (U2OS; [5]) was 59.18% and 13.64%. The “Population Membrane Permeable-Phenotype (%)” value (Fibroblast; [3]) was 9.72% and 35.29%, the “Population Mitochondria Different-Phenotype (%)” value (Fibroblast; [3]) was 8.33% and 36.47% and the “Population Mitotic Cells (%)” value (Fibroblast; [3]) was 60.87% and 9.68%. The “Population Apoptotic (%)” value (Fibroblast; [4]) was 9.09% and 83.33%, the “Population Mitochondria Different-Phenotype (%)” value (Fibroblast; [4]) was 17.16% and 3.57% and the “Population Mitotic Cells (%)” value (Fibroblast; [4]) was 90.91% and 16.67%. The “Population Membrane Permeable-Phenotype (%)” value (Fibroblast; [5]) was 4.81% and 17.86%, the “Population Mitotic Cells (%)” value (Fibroblast; [5]) was 63.16% and 16.22% and the “Population Tubulin-Different-Phenotype (%)” value (Fibroblast; [5]) was 20.19% and 73.21%.
